PubChem BioAssay AID445 (National Center for Advancing Translational Sciences (NCATS), 2006)
In all, about 110,000 compounds went through this assay and about 40 (0.04%) were called active. Inconclusive means that the source gave no clear call. Such entries were picked first, then a sample of the others. The call rests on the fitted dose curve; in most records, active means well fitted curve in the direction sought with a large enough effect in the signal ratio (not every such curve was filed as active); inconclusive means small, poorly fitted or top-dose-only effect, or a change in a side signal; inactive means flat fitted curve, though single readings scatter; the % refers to the signal ratio. A potency beside an inconclusive call is a rough fit, not a confirmed value.

Experiment: IkB Signaling;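 on IkBa stabilization activation: 0% = basal untreated cells and 100% = reference inhibitor full response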
Conditions: ABC-DLBCL IkBa-CBG/CBR dual luciferase ratio (green luciferase fused to IkBa over red control in OCI-Ly3 lymphoma cells), 4 h; IkBa stabilization activation: at 57.1 µM (top of the series), scaled: untreated 0%, proteasome inhibitor 100% unless noted
Summary of the method: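 Curves were fitted separately to fusion (green), unfused (red) and ratio luminescence, then classed by r2, magnitude and activity. Cells: OCI-Ly3, 4 h compound plus doxycycline at 37C; 10 uM MG-132 defined full response.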
Potency means the concentration at half of the fitted maximal effect.

| SMILES | IkBa stabilization activation | Potency |
| --- | --- | --- |
| COc1ccc(C2C(C(=O)Nc3ccc(C)cc3C)=C(C)Nc3nc(SC)nn32)cc1OC (centres undefined) | inconclusive: 4.14% [signal inhibitor] | – |
| Cc1ccc(NC(=O)CSc2nnc(COc3ccc(Cl)cc3)o2)cc1 | inconclusive: 10.2% [signal inhibitor] | – |
| CCOC(=O)c1oc2ccccc2c1CSc1nnc(-c2ccco2)o1 | inactive: 0.519% | – |
| CCOC(=O)c1ccccc1Nc1cc(C)nc2nc(C)nn12 | inactive: -3.48% | – |
| COc1ccccc1CNC(=O)c1ccc(-c2nc(CS(=O)c3ccc(C)cc3)c(C)o2)cc1 (centres undefined) | inactive: 0.751% | – |
| CC(=O)Nc1ccc(C(=O)Nc2ccc3c(c2)OCO3)cc1 | inactive: -0.497% | – |
| COc1ccc(S(=O)(=O)Nc2ccc3c(c2)sc(=O)n3C)cc1Cl | inconclusive: 14.7% [signal activator] | – |
| Cc1cc2c(cc1S(=O)(=O)CCC(=O)N(C)C1CCCCC1)OCC(=O)N2 | inconclusive: 0.0951% [signal inhibitor] | – |
| CCCCN1C(=O)CN(C2CCCCCC2)C(=O)C1c1ccc(OCC)c(OC)c1 (centres undefined) | inactive: -0.734% | – |
| CN(c1ncnc2c1c(-c1ccccc1)cn2-c1cccc(Cl)c1)C1CCCCC1 | inconclusive: -0.0707% [signal inhibitor] | – |
| O=S(=O)(CCN1CCN(C(c2ccccc2)c2ccccc2)CC1)C(F)(F)F | – | inconclusive: 31.6 µM [rising, single point] |
| COc1cccc(NC(=O)CCc2nc(-c3ccc(C(C)(C)C)cc3)no2)c1 | inconclusive: 11.7% [signal inhibitor] | – |
| Cc1cc(NC(=O)NC(=O)c2ccc(F)cc2F)n[nH]1 | – | inconclusive: 20 µM [signal inhibitor, partial curve] |
| O=C(CSc1nccn1-c1ccccc1)Nc1ccc2c(c1)OCO2 | inactive: 0.854% | – |
| CCN(CC)S(=O)(=O)c1cccc(-c2nnc(SCCOc3ccccc3)o2)c1 | inactive: 3.78% | – |
| COc1ccc(N2CCN(C(=O)CSc3nnc(-c4cc5ccccc5cc4O)n3C)CC2)cc1 | inconclusive: 8.73% [signal inhibitor] | – |
| CCc1ccc(CN(Cc2ccco2)C(=O)COc2ccccc2Cl)cc1 | inconclusive: 3.85% [signal inhibitor] | – |

| SMILES | IkBa stabilization activation | Potency |
| --- | --- | --- |
| Cc1cccc(-n2c(=O)c3c(c4cc(C)ccc4n3C)n(C)c2=O)c1 | – | inconclusive: 2 µM [signal inhibitor, full curve] |
| CC1=CC(=O)CC(C)(C)[C@@]1(O)/C=C\C(C)=C\C(=O)O | inactive: -0.645% [at 11.4 µM, scaled: untreated 0%, proteasome inhibitor 100%] | – |
| Cc1cc(C(=O)Nc2ccc3c(c2)OCCO3)c(C)o1 | inactive: 16% | – |
| COc1ccc(NC(=O)N2CC3(CCN(C(=O)c4cnccn4)CC3)C2)cc1 | inactive: 0.966% [at 11.4 µM, scaled: untreated 0%, proteasome inhibitor 100%] | – |
| COc1ccc2c(c1)CCc1c(C(=O)Nc3cnn(Cc4ccc(Cl)cc4Cl)c3)noc1-2 | inconclusive: 11.9% [signal inhibitor] | – |
| COc1cccc(NC(=O)CCSc2nc(-c3ccco3)cc(C(F)(F)F)n2)c1 | inconclusive: 12.8% [signal inhibitor] | – |
| CCOc1ccc(CCNC(=O)c2cc3cc4cc(OC)ccc4nc3s2)cc1OCC | inactive: -0.742% | – |
| COc1ncc2nc(-c3ccccc3)c(=O)n(C[C@H]3CCCO3)c2n1 | inactive: 1.44% [at 11.4 µM, scaled: untreated 0%, proteasome inhibitor 100%] | – |
| CCc1nn2c(=O)cc(COC(=O)c3cccc(NC(=O)COc4ccccc4)c3)nc2s1 | inconclusive: 9.95% [signal inhibitor] | – |
| O=C(O)CCc1c2ccc(=O)c(O)c-2oc2c(O)c(O)ccc12 | inactive: 1.46% [at 11.4 µM, scaled: untreated 0%, proteasome inhibitor 100%] | – |
| COc1ccc(C2CC(=O)N3CN(c4ccc(C)c(Cl)c4)CSC3=C2C#N)cc1OC (centres undefined) | inactive: 14% | – |
| COc1ccccc1NC(=O)C1=C(C)Nc2nc(SCc3ccccc3F)nn2C1c1ccncc1 (centres undefined) | inactive: -0.578% | – |
| Cc1cc(C)cc(NC(=O)Cn2cc(C(=O)c3ccncc3)c(=O)c3cc(C)c(C)cc32)c1 | inconclusive: 1.8% [signal inhibitor] | – |
| Cc1cccc(NC(=O)C2CCN(S(=O)(=O)c3ccc4[nH]c5c(c4c3)CCCCC5)CC2)c1 | inconclusive: 2.02% [signal inhibitor] | – |
| COc1ccccc1-c1noc(-c2cccnc2)n1 | inconclusive: 14.9% [signal inhibitor] | – |
| Cc1ccccc1CN1C(=O)c2ccccc2Sc2ccc(C(=O)O)cc21 | inconclusive: 4.78% [signal inhibitor] | – |
| Cc1ccc(NC(=O)C2CCCN(c3cnccn3)C2)cc1Cl (centres undefined) | inconclusive: 0.933% [signal inhibitor] | – |
